Measurements as given in PMC4336329 (PLoS ONE, 2015).
Out of some 310,000 compounds screened, about 14,000 (4.5%) showed an effect of 50% or more. The effect is printed as a negative number. This is one part of the list.

Target: human ether-à-go-go-related gene (hERG) potassium channel (human, UniProt Q12809)
Experiment: primary screen, population patch clamp on CHO cells stably expressing hERG
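Also: peak tail current of the secondary pulse compared with the same well before compound.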

Chain of human ether-à-go-go-related gene (hERG) potassium channel (Q12809 whole entry, looked up): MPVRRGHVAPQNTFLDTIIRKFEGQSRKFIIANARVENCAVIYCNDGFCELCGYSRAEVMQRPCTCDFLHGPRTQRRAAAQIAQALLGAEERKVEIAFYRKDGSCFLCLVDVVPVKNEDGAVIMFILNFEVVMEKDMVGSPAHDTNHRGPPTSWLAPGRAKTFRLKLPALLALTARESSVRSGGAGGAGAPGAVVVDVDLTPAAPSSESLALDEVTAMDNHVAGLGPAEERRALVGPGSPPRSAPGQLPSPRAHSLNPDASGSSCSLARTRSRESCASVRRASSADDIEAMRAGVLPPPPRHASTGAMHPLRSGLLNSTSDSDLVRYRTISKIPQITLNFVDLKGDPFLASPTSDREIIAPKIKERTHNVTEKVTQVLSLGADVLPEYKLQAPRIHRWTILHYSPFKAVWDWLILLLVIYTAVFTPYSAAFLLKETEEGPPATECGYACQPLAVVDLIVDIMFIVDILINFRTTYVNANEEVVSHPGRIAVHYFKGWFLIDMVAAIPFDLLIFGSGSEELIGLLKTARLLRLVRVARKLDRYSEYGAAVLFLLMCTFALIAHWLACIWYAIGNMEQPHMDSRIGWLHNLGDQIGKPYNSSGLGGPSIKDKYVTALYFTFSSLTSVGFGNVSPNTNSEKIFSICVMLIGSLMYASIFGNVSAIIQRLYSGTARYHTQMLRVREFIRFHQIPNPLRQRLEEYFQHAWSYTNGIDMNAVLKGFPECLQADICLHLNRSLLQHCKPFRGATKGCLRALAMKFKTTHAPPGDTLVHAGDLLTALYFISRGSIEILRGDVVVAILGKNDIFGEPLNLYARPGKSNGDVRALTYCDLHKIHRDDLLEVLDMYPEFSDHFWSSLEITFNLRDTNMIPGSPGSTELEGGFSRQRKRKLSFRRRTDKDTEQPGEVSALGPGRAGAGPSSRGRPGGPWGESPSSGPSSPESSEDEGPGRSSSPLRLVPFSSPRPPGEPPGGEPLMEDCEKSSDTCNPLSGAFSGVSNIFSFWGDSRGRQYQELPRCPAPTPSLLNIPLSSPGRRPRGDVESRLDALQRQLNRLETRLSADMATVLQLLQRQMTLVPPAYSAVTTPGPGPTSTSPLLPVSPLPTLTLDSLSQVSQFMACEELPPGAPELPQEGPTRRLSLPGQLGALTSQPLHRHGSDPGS

Structure (SMILES) | hERG current change (%, negative = inhibition) at 10uM
CC(C)(C)c1ccc(/C=N/OCC(=O)NCc2ccc(F)cc2)cc1 | -2.59%
COc1ccc(CN2CCNC(=O)C2CC(=O)NC2CCCCCC2)c(C)c1C (stereo not drawn) | 2.04%
COCCOC(=O)C1=C(C)N(Cc2ccccc2)C(=O)NC1c1ccc(OC)cc1 (stereo not drawn) | -17.7%
COc1ccc(Cc2nc3ccc(C(=O)NCC4COCCO4)cc3o2)cc1OC (stereo not drawn) | 17.6%
CC(C)=C1C2CCC1C1C(=O)N(c3ccc4c(c3)OCO4)C(=O)C21 (stereo not drawn) | 2.92%
Cc1ccc(/C=N/NC(=O)c2nnn(-c3nonc3N)c2CSc2ccccc2)cc1 | 1.53%
CCOC(=O)Cc1cc(=O)c2c(=O)n(-c3ccccc3)[nH]c2[nH]1 | 9.55%
C=CCn1c(N)cc(=O)nc1SCC(=O)N1CCN(c2ccc(F)cc2)CC1 | -4.5%
Cc1ccc(CSc2ncnc3c2cnn3-c2ccccc2)cc1 | 36.9%
CN=C(C)/C(C(=O)OC)=C(/O)c1ccc(Cl)cc1Cl | 13.9%
Cc1ccc(NC(=O)C(C)OC(=O)c2ccc(NC(=O)CC#N)cc2)cc1S(=O)(=O)N1CCOCC1 (stereo not drawn) | 5.04%
Cc1cccc(NC(=O)CSc2cc(C)c(C#N)c3nc4ccccc4n23)c1 | -1%
CCOC(=O)C1CCN(S(=O)(=O)c2cccc(-c3cn4cc(C)ccc4n3)c2)CC1 | -3.7%
COC(=O)C1=C(N)Oc2cc(C)n(Cc3cccnc3)c(=O)c2C1c1cccc(OC)c1OC (stereo not drawn) | -0.147%
Cc1cc(Nc2cc(F)ccc2C)n2ncnc2n1 | 4.06%
COc1ccccc1NC(=S)N(CCN(C)C)C(C)c1ccncc1 (stereo not drawn) | -7.49%
CSCCC(NC(=O)C12CC3CC(CC(C3)C1)C2)C(=O)OCC(=O)c1ccccc1 (stereo not drawn) | 12.7%
O=C1N=c2ccc(Br)cc2=C1c1sc(=S)n(NS(=O)(=O)c2ccccc2)c1O | 3.81%
COC(=O)c1ccc(CSc2nnc3c(n2)[nH]c2ccccc23)cc1 | -23.1%
Cc1ccc(OCCC(=O)OCC(=O)Nc2ccc(Cl)cn2)cc1 | -6.26%
O=C(NCCC1=CCCCC1)C1CCC(=O)N(Cc2cccc(C(F)(F)F)c2)C1 (stereo not drawn) | -17.2%

Structure (SMILES) | hERG current change (%, negative = inhibition) at 10uM
COCCCn1c(=O)c2ccccc2n(CC(=O)NCCC2=CCCCC2)c1=O | -16.2%
CC(=O)c1cccc(N(CC(=O)Nc2cccnc2)S(C)(=O)=O)c1 | -6.65%
O=C(NC1CCCC1)C(c1ccccn1)N(C(=O)c1csnn1)c1ccc(F)cc1 (stereo not drawn) | 11.4%
CCOc1ccc(NC(=O)CCCOc2cc(=O)n(C)c3ccccc23)cc1 | 4.68%
COCCn1c(SCc2nc3cc(OC)c(OC)cc3c(=O)[nH]2)nnc1-c1ccncc1 | 2.68%
COC(=O)C1=C(c2cccc(OC)c2OC)C[C@@H]2CC[C@H]1N2C(=O)N1CCC(C)CC1 | -4.1%
Cn1nc(C(=O)Nc2ccccc2Cl)cc1C(=O)Nc1ccccc1Cl | 1.65%
CC(C)Oc1ccc2ccccc2c1C=O | -2.75%
O=C(O)C1(c2ccccc2)CCN(S(=O)(=O)c2ccc(Cl)s2)CC1 | 0.758%
CCOc1ccccc1NC(=O)CCC(=O)Nc1ccccc1OCC | 7.25%
CC(C)C[C@H](NC(=O)N1CC(=O)Nc2ccccc21)C(=O)N[C@@H](C(=O)O)c1ccccc1 | -1.09%
COc1ccc(N=Cc2nc(-c3ccccc3)oc2OC(C)=O)cc1 | 10.9%
O=C(O)c1nccnc1C(=O)N1CCN(c2ccccc2)CC1 | 17.5%
O=C(c1ccc(OC2CCN(Cc3ccc(F)cc3)CC2)cc1)N1CCCC1 | -24%
CN1CCN(CC(=O)N2CCn3c4c(c5cc(C6CCCCC6)ccc53)CCCC42)CC1 (stereo not drawn) | -17.1%
Cc1ccc(N2CCN(S(=O)(=O)N3CCCCC3)CC2)cc1C | 22.4%
CCN(c1ccccc1)S(=O)(=O)c1ccc(C(=O)Nc2nnc(-c3ccco3)o2)cc1 | 17.7%
CCCCCNCC(=O)Nc1cccc(C(=O)Nc2cccc(C(F)(F)F)c2)c1 | -48.2%
Cc1ccc(/C(=N/Nc2nc3ccccc3s2)C2=C(O)c3ccccc3C2=O)cc1 | 7.33%
COc1ccc(NC(=O)COC(=O)Cc2ccc(-c3ccccc3)cc2)c(OC)c1 | -1.12%
COc1cc(OC)cc(N2CCN(S(=O)(=O)c3ccc(-n4cnnn4)cc3)CC2)c1 | 14.2%

Structure (SMILES) | hERG current change (%, negative = inhibition) at 10uM
C=CCn1c(SCc2nc3cc(C(F)(F)F)ccc3c(=O)[nH]2)nc2sc(CC)cc2c1=O | 9.42%
COc1ccccc1N/C(=N/S(=O)(=O)c1ccc(Cl)cc1)c1ccccc1 | -35.1%
CC1(C)CN=C(NC2CCCCC2)S1 | 8.62%
COc1ccc(S(=O)(=O)N(C)C2CCS(=O)(=O)C2)cc1OC (stereo not drawn) | 13.9%
COc1ccc(CNC(NC(=O)c2ccccc2)(C(F)(F)F)C(F)(F)F)cc1 | 1.38%
O=C(N/N=C/c1cccs1)c1cccc(S(=O)(=O)Nc2ccc(Cl)cc2)c1 | 17.1%
O=C(CCc1c[nH]c2ccccc12)NCC(=O)Nc1ccc(F)c(F)c1F | -10.7%
Cc1c(C)c2ccc(OCC(=O)N3CCN(c4cccc(Cl)c4)CC3)cc2oc1=O | 16.5%
Cc1ccccc1N1CCN(C(=S)c2ccc([N+](=O)[O-])cc2)CC1 | -40%
COc1cccc(N2CC(C(=O)Nc3nnc(SCC(=O)Nc4ccc(NC(C)=O)cc4)s3)CC2=O)c1 (stereo not drawn) | 12.8%
C[C@@]12C(=O)Nc3cc(F)ccc3C(=O)N1[C@H]1c3ccccc3OC[C@@H]1[C@@H]2c1ccccc1 | -0.864%
N#Cc1cccc(NC(=O)CN2C(=O)NC(Cc3ccccc3)C2=O)c1 (stereo not drawn) | 2.91%
O=C(CSc1cccc2cccnc12)N/N=C/c1ccncc1 | -0.0291%
COc1ccccc1/C=C\C(=O)NCC(=O)N/N=C/c1ccc(O)cc1O | 15%
C[C@H]1CCC[C@]2(O[C@@H](CCO)C[C@@H](O)[C@@H]2O)O1 | -12.8%
O=C(C1CCCN1S(=O)(=O)c1cccc2nsnc12)N1CCCCC1 (stereo not drawn) | 11%
O=C(NNC(=O)C1CCCO1)c1ccc([N+](=O)[O-])cc1 (stereo not drawn) | 10%
Cc1cc(C)cc(N(C(=O)c2ccc(Br)o2)C2C=CS(=O)(=O)C2)c1 (stereo not drawn) | -19.7%
CCN(CC(=O)Nc1c(F)cccc1F)C(=O)C1CC(=O)N(c2ccc3c(c2)OCCO3)C1 (stereo not drawn) | 0.703%
Cc1nn(-c2ccccc2)c(N)c1N=Nc1cccc(S(=O)(=O)N2CCOCC2)c1 | 3.19%
COc1ccccc1-n1cnnc1SCC(=O)NC1CCS(=O)(=O)C1 (stereo not drawn) | 38.3%

Structure (SMILES) | hERG current change (%, negative = inhibition) at 10uM
Cc1cc(OCc2nnc(SCC(=O)O)n2-c2ccccc2)ccc1Cl | 7.09%
CCC(=O)N1CCN=C1SCc1ccccc1Cl | 9.36%
Cc1c(CN2CCC(CO)(CCOc3ccccc3)CC2)[nH]c2ccc(Cl)cc12 | -71%
O=C(O)CC1(CC(=O)Nc2ccc(Oc3cccc(C(F)(F)F)c3)nc2)CCCC1 | 13.7%
O=c1[nH]c2ccc(S(=O)(=O)N3CCN(c4ccccc4F)CC3)cc2s1 | -27.1%
O=C(CS(=O)(=O)Cc1ccccc1)NCc1ccc2c(c1)OCO2 | -11.7%
COc1ccc(Cn2c(C)nnc2-c2cnn(C)c2N)cc1 | 14.8%
CC1CCN(S(=O)(=O)c2ccc(Cl)cc2)CC1 | -4.84%
O=C(Nc1ccccc1F)n1ncc2cc(Cl)ccc21 | 17.6%
O=C(Cc1ccc(F)cc1)NC1CCCC1 | -8.34%
Cc1cc(C)cc(NC(=O)c2ccc(N3C(=O)C4CCCCC4C3=O)cc2)c1 (stereo not drawn) | 7.26%
O=C(O)/C=C\C(=O)O.c1ccc(Sc2ccccc2CN2CCCC2)cc1 | -50.7%
O=C(NCc1ccco1)c1cc(-c2ccccn2)nc2ccccc12 | -1.42%
CCOc1cc(C2C3=C(CCCC3=O)N(C)C3=C2C(=O)CCC3)cc(Cl)c1O | 7.13%
COc1c(Br)cc(Br)cc1/C=N/NC(=O)c1ccncc1 | 1.62%
O=C(C1CCN(S(=O)(=O)c2ccccc2)CC1)N1CCN(Cc2ccc3c(c2)OCO3)CC1 | -28.9%
Cc1ccc(CCN2C(=O)CCC2(C)C(=O)NCc2cccnc2)cc1 (stereo not drawn) | -14.3%
COCc1[nH]nc2c1C(c1ccccc1OC)C(C#N)=C(N)O2 (stereo not drawn) | 6.54%
COc1cc(C(=O)NC2CCCCC2)ccc1OC1CCN(C(C)=O)CC1 | 7.63%
C/C(=N\NC(=O)CCc1c[nH]c2ccccc12)c1ccc([N+](=O)[O-])cc1 | -6.49%
COc1cc(NC(=O)c2ccc3c(c2)OCO3)ccc1NC(=O)c1cccs1 | 7.33%
